# The whole screen tested about 310,000 compounds, of which about 14,000 (4.5%) showed an effect of 50% or more. The effect is printed as a negative number. This is one part of the list.
# Target: human ether-à-go-go-related gene (hERG) potassium channel (human, UniProt Q12809)
# Experiment: primary screen, population patch clamp on CHO cells stably expressing hERG
# 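Note: peak tail current of the secondary pulse compared with the same well before compound.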
# Chain of human ether-à-go-go-related gene (hERG) potassium channel (Q12809 whole entry, looked up): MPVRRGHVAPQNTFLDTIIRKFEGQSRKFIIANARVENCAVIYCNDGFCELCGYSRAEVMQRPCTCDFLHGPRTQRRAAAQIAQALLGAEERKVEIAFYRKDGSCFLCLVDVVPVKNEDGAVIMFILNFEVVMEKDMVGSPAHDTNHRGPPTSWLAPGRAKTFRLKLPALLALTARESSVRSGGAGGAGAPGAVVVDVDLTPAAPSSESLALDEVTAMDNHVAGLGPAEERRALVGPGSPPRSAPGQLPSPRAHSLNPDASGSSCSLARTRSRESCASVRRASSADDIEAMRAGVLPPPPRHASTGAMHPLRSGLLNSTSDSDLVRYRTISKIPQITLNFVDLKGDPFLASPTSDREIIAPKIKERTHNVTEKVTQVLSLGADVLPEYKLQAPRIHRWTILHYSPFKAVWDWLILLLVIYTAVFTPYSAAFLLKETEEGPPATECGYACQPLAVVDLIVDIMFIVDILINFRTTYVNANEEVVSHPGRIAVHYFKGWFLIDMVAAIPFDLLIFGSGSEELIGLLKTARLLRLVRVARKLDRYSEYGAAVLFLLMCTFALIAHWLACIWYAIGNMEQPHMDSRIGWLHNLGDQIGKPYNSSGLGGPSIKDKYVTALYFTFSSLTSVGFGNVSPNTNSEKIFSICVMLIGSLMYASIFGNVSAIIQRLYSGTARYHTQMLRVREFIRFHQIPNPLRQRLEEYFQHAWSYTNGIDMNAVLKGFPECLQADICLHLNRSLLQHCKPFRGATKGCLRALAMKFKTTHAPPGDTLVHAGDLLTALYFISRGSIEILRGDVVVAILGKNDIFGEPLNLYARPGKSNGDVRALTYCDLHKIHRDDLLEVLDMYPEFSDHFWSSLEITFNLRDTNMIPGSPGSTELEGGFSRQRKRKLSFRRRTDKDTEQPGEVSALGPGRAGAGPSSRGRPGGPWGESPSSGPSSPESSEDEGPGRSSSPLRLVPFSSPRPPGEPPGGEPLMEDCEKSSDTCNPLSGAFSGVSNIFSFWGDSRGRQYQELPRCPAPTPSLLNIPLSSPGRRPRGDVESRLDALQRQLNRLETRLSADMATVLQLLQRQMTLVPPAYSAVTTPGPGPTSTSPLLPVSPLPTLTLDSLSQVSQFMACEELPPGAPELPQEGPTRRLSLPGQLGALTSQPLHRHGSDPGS
row,Structure (SMILES),"hERG current change (%, negative = inhibition) at 10uM [%]"
1,CN1C(=S)N(c2ccccc2)C(=O)/C1=C/c1cccs1,-7.22
2,CC1=Nc2ncnn2C(c2ccccc2)/C1=N\O (stereo not shown),-0.0382
3,O=C(COc1ccc(-c2nnco2)cc1)Nc1ccc(C(F)(F)F)cc1,5.7
4,Cc1ccccc1C(=O)NC(C(=O)Nc1nc2c(s1)CCCC2)C(C)C (stereo not shown),-2.77
5,CC(C)(C)c1nc(CN2CCCCC2)cc(CN2CCCCC2)c1O,-24.2
6,O=C(O)C(=O)O.O=C(c1cccc(F)c1)N1CCC(N2CCCCCC2)CC1,-15.7
7,COc1ccc(/C(N)=N/OC(=O)c2ccc(OC)c([N+](=O)[O-])c2)cc1OC,-65
8,COc1ccc(S(=O)(=O)N2CCN(C(=O)c3cc(-c4ccc(Br)cc4)n[nH]3)CC2)cc1OC,-13.5
9,CC(C)N1CN=C(Nc2nc3ccccc3o2)NC1,25.2
10,COc1cc(/C=N/NC(=O)Cc2c[nH]c3ccccc23)cc(OC)c1OC,1.52
11,Cc1cccc(-n2cnc3cc(C(=O)N4CCc5ccccc54)ccc32)c1,-61.5
12,COc1ccc(/C=C/C(=O)Nc2nc(C)cc(C)n2)cc1OC,15.8
13,COC(=O)C(C(C)=O)C1=C/C(=N\S(=O)(=O)c2ccc(C)cc2)c2ccccc2C1=O (stereo not shown),14.3
14,CC(C)(C)c1ccc(OCCCC(=O)NNC(=O)c2ccccc2O)cc1,14
15,CCOC(=O)c1ccc(CNC(=O)CSc2nnnn2-c2ccc(Cl)cc2)o1,-27.2
16,CCOC(=O)C1CCCN(C(=O)c2cccc([N+](=O)[O-])c2C)C1 (stereo not shown),0.93
17,CC1CN(S(=O)(=O)c2cccc(C(=O)N(CCc3ccccc3)Cc3ccccc3)c2)CC(C)O1 (stereo not shown),-7
18,O=C(/C=C/c1ccc(Cl)cc1Cl)c1cccnc1,7.98
19,O=C(NCCCN1CCc2ccccc2C1)Nc1ccc(Cl)cc1,-65.5
20,N#Cc1nc(-c2ccc(Cl)cc2)oc1NCc1cccc2c1OCO2,8.09
21,O=C(Nc1ccccn1)c1ccc(Cl)c(S(=O)(=O)N2CCOCC2)c1,-5.24
22,COc1ccc(N(CC(=O)NC2CCCC2)C(=O)Cn2nnc(-c3ccc(F)cc3)n2)cc1OC,8.37

row,Structure (SMILES),"hERG current change (%, negative = inhibition) at 10uM [%]"
1,N/C(COc1cc(Cl)cc(Cl)c1)=N\O,13.9
2,Cl.O=C1CN2Cc3c(ccc(Cl)c3Cl)N=C2N1,-5.07
3,C=C(C)CC(Nc1ccc(OC)cc1)c1ccco1 (stereo not shown),18.3
4,C=CCc1cc(OC)ccc1OCCOCCN1CCc2ccccc2C1.O=C(O)C(=O)O,-71
5,CCN(CC)CCNS(=O)(=O)c1ccc(OC)c(Br)c1,10.5
6,Cc1cccc(NC(=O)c2cc(Cl)nc3ccccc23)c1,9.55
7,CC(C(=O)O)n1c(C(F)(F)F)nc2ccccc21 (stereo not shown),4.94
8,Cc1ccc2c(C)c(C(=O)N(C)Cc3ccncn3)oc2c1C,11.8
9,C=CCOC(=O)C1=C(C)NC(=S)NC1/C=C/c1ccccc1 (stereo not shown),-4.63
10,CCOc1cccc(C(=O)Nc2cccc(C(=O)NC(C)(C)C)c2)c1,-34.6
11,O=C(CNC(=O)C1CCCCC1)Nc1cc(Cl)ccc1Cl,-12.7
12,O=C(O)C[C@H]1c2cc(C(F)(F)F)ccc2S(=O)(=O)N1C1CCCC1,20
13,Cl.OC(CCCCN1CCCCC1)c1ccccc1 (stereo not shown),-18.1
14,O=C(O)Cc1c(C(=O)O)nnn1-c1ccc(Cl)cc1Cl,22.9
15,CCCN(CCC)C(=O)Cn1c(=O)n(CCCCCC(=O)Nc2ccccc2)c(=O)c2sccc21,-45.3
16,Cc1nc(-c2ccc(Cl)cc2)sc1C1(C)CC(c2ccc(Cl)cc2)=NO1 (stereo not shown),26
17,CCOC(=O)CNC(=O)CSc1nnnn1-c1cc(C)ccc1C,6.06
18,CN1c2ccc(Cl)cc2C(=O)NC1c1ccc([N+](=O)[O-])s1 (stereo not shown),-33
19,O=S(CC1CC1(Cl)Cl)CC1CC1(Cl)Cl (stereo not shown),3.18
20,O=C(CNC(=O)c1nc[nH]c1C(=O)NCC(=O)OCc1ccccc1)OCc1ccccc1,17.9
21,CC(=O)c1cc2c(cc1NC(=O)CCC1CCCC1)OCO2,-2.6
22,CC(=O)OC1CC(C)(C)N(OC(=O)CCCN2C(=O)c3ccccc3C2=O)C(C)(C)C1,-12.2

row,Structure (SMILES),"hERG current change (%, negative = inhibition) at 10uM [%]"
1,CC(C)(C)OC(=O)N1CCCN(C(=O)Nc2cccc(Cl)c2)CC1,-4.88
2,Cc1cc(/C=C2\SC(=S)N(Cc3ccco3)C2=O)c(C)n1-c1ccccc1,8.67
3,O=C(c1ccc(NC(=S)NCc2ccco2)cc1)N1CCOCC1,-4.64
4,Cc1ccc2c(c1)N(CC(=O)N1CCCc3ccccc31)C(=O)C(C)O2 (stereo not shown),-8.46
5,CC(=O)Nc1nc(-c2cccs2)cs1,4
6,Cn1c(=O)n(C)c2cc3[nH]cnc3cc21,9.54
7,COC(=O)CCC(=O)Nc1cccc2ccccc12,11.4
8,COc1ccc(NC(=O)CSc2nncn2C)cc1OC,6.77
9,CC1(C)CC(=O)C(CCCN2C(=O)c3ccccc3C2=O)C(=O)C1,-47.2
10,CCC1=Nc2cc(C(=O)N3CCCCC3)ccc2Sc2ccc(C)cc21,-15.1
11,Cc1c(Cl)cccc1N(CC(=O)NC1CCCCC1)S(C)(=O)=O,7.78
12,Cc1ccccc1C(=O)Nc1ccnn1C1CCN(C(=O)c2ccoc2)CC1,10.5
13,CCN(CC)CCN1C(=O)C(=O)/C(=C(/O)c2c(C)[nH]c(C(=O)OC)c2C)C1c1cccnc1 (stereo not shown),14.2
14,O=C(CCCn1c(=O)c2sccc2n(Cc2ccc(F)cc2)c1=O)NCc1ccco1,-30.2
15,CC1CN(C/C(=N\O)C23CC4CC(CC(C4)C2)C3)CC(C)O1 (stereo not shown),9.35
16,C/C(=N\NC(=O)c1nnn(-c2nonc2N)c1-c1ccccc1)c1cccnc1,9.2
17,Cc1ccc(OCC(O)CNC2CCCC2)cc1C.Cl (stereo not shown),-3.46
18,COc1ccc(N2C(=O)c3ccc(C(=O)Nc4cc(OC)ccc4OC)cc3C2=O)cc1,23.7
19,Cc1ccc(CN2CC(C(=O)NCCCSc3ccccc3)CC2=O)cc1 (stereo not shown),-12.6
20,Cc1ccc(Cc2c(C)nc3nc(SCC(=O)NCCN4CCOCC4)nn3c2C)cc1,-9.84
21,Cn1cc(SCC(=O)N2CCCc3ccccc32)c2ccccc21,-2.42
22,CC1(C(=O)NCc2ccccn2)C=CCN1C(=O)c1ccccc1 (stereo not shown),15.3

row,Structure (SMILES),"hERG current change (%, negative = inhibition) at 10uM [%]"
1,COc1ccc(CNc2ccc(S(=O)(=O)N3CCN(C)CC3)cn2)cc1OC,6.6
2,CCOC(=O)C1(CCCc2ccccc2)CCN(C(=O)Cn2nc(C)nc2C)CC1,-24.6
3,CCCc1nc2ccc(NC(C)=O)cc2c(=O)n1Cc1ccccc1Cl,-15.5
4,CCN1C(=O)c2ccccc2S(=O)c2ccc(C(=O)N3CCN(C(=O)c4ccco4)CC3)cc21 (stereo not shown),-10.6
5,O=C(Oc1ccc(-c2nccc(-c3ccccn3)n2)cc1)c1cccc(C(F)(F)F)c1,-0.542
6,O=c1[nH]c(=O)n(CC2CCCO2)c(O)c1/C=C1\C=Nc2ccccc21 (stereo not shown) [22416389],0.635
7,Cc1cccc(-c2nc(CSCC(=O)N3CCN(Cc4ccc5c(c4)OCO5)CC3)c(C)o2)c1,-22.2
8,Cc1c(NC(=O)c2ccc(NC(=O)C3CC3)cc2)cccc1C(=O)O,12.5
9,Cc1cccc(C)c1NC(=O)CC(NCCc1ccccc1)C(=O)O (stereo not shown),-1.83
10,O=C(N/N=C/C(Br)=C/c1ccccc1)C(O)c1ccccc1 (stereo not shown),-3.43
11,CCN1CCN(CCCNC(=O)c2ccc3c(=O)n(CCc4ccccc4)c(=O)[nH]c3c2)CC1,15
12,COCCCNC(=O)COc1ccc(Br)cc1Cl,-7.88
13,CCOc1ccc(NC(=O)CCN2C(=O)C3CCCCC3C2=O)cc1OCC (stereo not shown),4.35
14,CCN1C(=NCCc2c[nH]c3ccccc23)N[C@@H](c2ccccc2)[C@H](C(=O)OC)[C@H]1C,7.52
15,COc1cccc(C2c3c(oc4ccc(F)cc4c3=O)C(=O)N2CCCN2CCOCC2)c1 (stereo not shown),-31.5
16,O=C(CN1C(=O)C(c2ccc(F)cc2)=NC12CCCC2)Nc1ccc(F)cc1,-5.39
17,COc1cccc2cc(C(=O)NCCc3ccccc3)c(=O)oc12,17.4
18,CCC1(C)Cc2c(sc3nnn(CC(=O)Nc4ccccc4C)c(=O)c23)CO1 (stereo not shown),-58.4
19,CCOc1ccccc1NC(=O)C1C2CCC3C(CCC21)C3(Cl)Cl (stereo not shown),-13.4
20,COc1ccc(NC(=O)CCc2nc(-c3ccc(C)cc3)no2)c(OC)c1,4.23
21,CCn1c(CNc2ccc(C)cc2C)nnc1SCC(=O)N1CCCc2ccccc21,-20.3
22,Cc1cc(C(=O)CCC(=O)NCc2ccccc2F)c(C)s1,8.28

# Source: article PMC4336329 (PLoS ONE, 2015)
